# The campaign covered roughly 330,000 compounds. About 300 (0.091%) were called active. Inconclusive means that the source gave no clear call. Such entries were picked first, then a sample of the others. Calls come from the whole dose curve; as a rule, active = well fitted inhibition curve with a large enough effect; inconclusive = small, poorly fitted or top-dose-only effect, or effect the other way, or another doubt; inactive = no such curve, though single readings can be large or run the other way. No potency is given beside an inconclusive call; the fits are too rough.
# Target: Lysosomal acid glucosylceramidase (Homo sapiens) (UniProt P04062)
# Experiment: qHTS Assay for Inhibitors and Activators of N370S glucocerebrosidase as a Potential Chaperone Treatment of Gaucher Disease;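 for activity change, negative = inhibition: 0% = full enzyme activity and -100% = no enzyme basal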
# Conditions: N370S GC spleen homogenate, 4MU-glucoside fluorescence; activity change, negative = inhibition: at 59.4 µM (top of the series) unless noted
# Potency is the fitted concentration of half-maximal effect.
SMILES,Potency,"activity change, negative = inhibition"
OCCN(CCO)CC(O)COc1ccc(C23CC4CC(CC(C4)C2)C3)cc1 (centres undefined),"inconclusive [inhibitor, single point]",
Cc1[nH]nc2c1/C(=N/O)CC(c1ccccc1)C2 (centres undefined),"inconclusive [inhibitor, partial curve, poor fit]",
COc1cc2c(cc1OC)C(NC(=O)C(F)(F)F)C/C2=N\O (centres undefined),,inactive: -1.32%
Cc1cc(F)ccc1NC(=O)c1ccc(NS(=O)(=O)c2cc(C(C)(C)C)ccc2C)cc1,"inconclusive [inhibitor, partial curve]",
O=S(=O)(NN1CCOCC1)c1ccc(Br)s1,"inconclusive [activator, single point]",
Clc1ccc(OCc2cn3ccccc3n2)c2ncccc12,,inactive: -16.5%
O=C(Cl)c1cccc([N+](=O)[O-])c1,,inactive: -4.69%
CCn1c(SCC(=O)NC)nnc1C(C)C,"inconclusive [activator, partial curve, poor fit]",
COC(=O)C1=CN(Cc2ccc(OC)cc2)C=C(C(=O)OC)C1c1ccc(O)c(OC)c1,"inconclusive [activator, single point]",
Cc1ccc2nc3cc([N+](=O)[O-])cc([N+](=O)[O-])c3cc2c1,,inactive: -4.95%
CC(=O)Nc1ccc(Nc2nnc(-c3ccc(O)cc3)c3ccccc23)cc1,"inconclusive [inhibitor, partial curve, poor fit]",
O=C(CCCN1C(=O)/C(=C/c2ccco2)SC1=S)Nc1cccc(C(=O)O)c1,"inconclusive [inhibitor, partial curve]",
OCCNCc1cccc(OCc2ccc(Cl)cc2)c1,"inconclusive [inhibitor, full curve, poor fit]",
CCCCCc1nnc(N)s1,"inconclusive [activator, partial curve, poor fit]",
O=C1c2ccccc2NC(c2ccc(-c3cccc(Cl)c3)o2)N1O (centres undefined),"inconclusive [activator, partial curve]",
CCn1cc(/C=C(\NC(=O)c2ccccc2Cl)C(=O)NCCN2CCOCC2)c2ccccc21,"inconclusive [inhibitor, single point]",
CN(C)c1ccccc1C(=O)c1ccccc1N(C)C,"inconclusive [activator, partial curve]",
COc1ccccc1CNc1ccnc(-c2ccccc2C(F)(F)F)n1,"inconclusive [inhibitor, partial curve]",
O=C(Nc1cnc2sc3c(n2c1=O)CCCC3)c1ccc(F)cc1,"inconclusive [activator, single point]",
COc1ccc(C(CCNC(C)c2ccccc2)C(C)C)cc1 (centres undefined),"inconclusive [inhibitor, single point]",
COc1ccc(C=C2c3ccccc3C(=O)c3ccccc32)cc1O,,inactive: 20%
Oc1nc(Nc2cccc(Cl)c2)sc1/C=C1\C=Nc2ccccc21,"inconclusive [activator, partial curve]",

SMILES,Potency,"activity change, negative = inhibition"
N#C/C(=C/c1ccc(N2CCOCC2)o1)C(=O)N1CCOCC1,"inconclusive [inhibitor, single point]",
Cc1cc(S(=O)(=O)c2cc3ccc(O)c(C)c3oc2=O)ccc1F,"inconclusive [activator, single point]",
CC(NC(=O)c1ccc2ccccc2n1)c1ccc(Br)cc1 (centres undefined),"inconclusive [activator, single point]",
CCN1CCN(CCCNC(=O)c2ccc3c(c2)N(Cc2ccc(C)cc2)CCS3)CC1,"inconclusive [activator, single point]",
S=c1[nH]nc(-c2cccs2)n1/N=C/c1cn(-c2ccccc2)nc1-c1ccccc1,"inconclusive [activator, full curve, poor fit]",
CCN1CCN(c2ccc(S(=O)(=O)N3CCCCC3)cc2NC(=O)c2cccc(C(F)(F)F)c2)CC1,"inconclusive [inhibitor, single point]",
CCOC(=O)c1c(/N=C/c2ccc(C)cc2O)sc2c1CCN(C)C2,,inactive: -0.0739%
Cc1cc(=O)oc2cc(NS(=O)(=O)c3ccc(F)cc3)ccc12,"inconclusive [activator, partial curve]",
O=C1[C@@H]2Cc3c([nH]c4ccccc34)C(c3cccc([N+](=O)[O-])c3)N2C(=O)CN1C1CCN(Cc2ccccc2)CC1 (some centres undefined),"inconclusive [inhibitor, full curve, poor fit]",
COCCCn1cc(C(=O)c2ccccc2OCC(=O)Nc2cccc(F)c2)cc(C#N)c1=O,"inconclusive [activator, partial curve]",
CCOC(=O)CCN1C(=O)[C@H]2[C@H]3[C@H](O)[C@H](O)C/C(=N/OCC(C)C)[C@@H]3CC[C@@H]2C1=O,,inactive: 13.9% [at 12.8 µM]
C#CCOCCOCCOCCNc1nc(N2CCN(C(=O)CCCCCCCCCCNC(=O)Cn3cc(CCCCCN)nn3)CC2)nc(N2CCN(C(=O)CCCCCCCCCCNC(=O)[C@@H]([C@H](C)O)n3cc(C)nn3)CC2)n1,"inconclusive [inhibitor, partial curve]",
COCCNc1nc(CSc2ccccc2)nc2sc(C)c(C)c12,"inconclusive [activator, single point]",
COc1ccc(Nc2nc(-c3cccnc3)nc3ccccc23)cn1,"inconclusive [inhibitor, partial curve]",
CC(Cc1cccs1)NC(=O)Nc1ccc(Cl)cc1 (centres undefined),,inactive: 9.67%
COc1cccc(NC(=O)N2CCN(c3nnnn3-c3ccccc3)CC2)c1,"inconclusive [inhibitor, single point]",
Cc1nc(C(=O)NC2CCCCC2)sc1C1(C)CC(c2cccc([N+](=O)[O-])c2)=NO1 (centres undefined),"inconclusive [activator, partial curve]",
CCc1cc2c(CN3CCN(CC)CC3)cc(=O)oc2cc1O,"inconclusive [activator, partial curve]",
Cc1ccc(C)c(N(C(=O)c2nsc(Cl)c2Cl)C(C(=O)NC2CCCC2)c2ccc(O)cc2)c1 (centres undefined),"inconclusive [inhibitor, partial curve]",
O=C(COc1ccccc1-c1ccccc1)N/N=C/c1cccc2ccccc12,"inconclusive [activator, single point]",
CCCN(CCC)c1ccc(/C=C/c2ccc3cc(OCC)ccc3n2)cc1,"inconclusive [activator, partial curve]",
COc1ccc(-c2cc(C(=O)N3CCN(c4cccc(C)c4C)CC3)c3ccccc3n2)cc1OC,,inactive: 7.52%

SMILES,Potency,"activity change, negative = inhibition"
N#Cc1nc(-c2ccccc2)oc1N1CCCCC1,"inconclusive [activator, partial curve]",
O=C(Nc1ccc(S(=O)(=O)Nc2nccc(C3Cc4ccccc4C(=O)O3)n2)cc1)c1ccccc1 (centres undefined),"inconclusive [activator, single point]",
Clc1ccc(OCCCN2CCCCC2)c(Br)c1,,inactive: 3.26%
CCOc1ccc(C(=O)c2nc3c(n2O)CCCC3)cc1,"inconclusive [inhibitor, single point]",
CC(/C=N/n1c(-c2ccc(C)cc2)n[nH]c1=S)=C\c1ccco1,,inactive: 1.53%
COc1ccc(NS(=O)(=O)c2cccc3cccnc23)cc1OC,"inconclusive [inhibitor, full curve, poor fit]",
COc1ccccc1OCCn1cc(C(=O)c2ccco2)c2ccccc21,"inconclusive [activator, partial curve]",
Cc1ccc(C(=O)N2CCN(Cc3ccccc3)CC2)cc1S(=O)(=O)N1CCOCC1,"inconclusive [inhibitor, single point]",
Cc1ccc(-c2cc(C(=O)O)c3cc(Br)ccc3n2)o1,,inactive: 4.49%
Cc1nc2ccccc2c(=O)n1NCc1cc(Br)cs1,"inconclusive [inhibitor, single point]",
Cc1cc(-n2c(C)cc(C(=O)CSc3nnnn3-c3ccccc3)c2C)no1,,inactive: -14.5%
COc1ccc(-c2ccc([C@H]3[C@H]4C=CC[C@@H](C)[C@@H]4C(=O)N3Cc3ccccc3)c(F)c2)cc1C,,inactive: 6.45%
Cc1ccc(N2C(=O)[C@@H]3C(C(=O)C(c4ccccc4)c4ccccc4)=NN[C@@H]3C2=O)cc1,"inconclusive [activator, partial curve]",
Cc1cc(C#Cc2c(-c3ccccc3)n(C)c3ccccc23)ccc1F,"inconclusive [activator, partial curve]",
O=C(c1ccccc1)N1N=C(c2cccs2)CC1c1ccccc1O (centres undefined),"inconclusive [activator, partial curve]",
Cc1cc(C)c2nc(N(CCCN(C)C)C(=O)c3ccc4c(c3)CCCC4)sc2c1,"inconclusive [inhibitor, partial curve]",
Fc1ccc(-c2csc3ncnc(Cl)c23)cc1,"inconclusive [activator, partial curve, poor fit]",
CCC(=O)Nc1nnc(Cc2ccccc2)s1,,inconclusive: 28.9% [activator]
Cc1ccc(Nc2nc(N)nc(CN3CCN(Cc4ccccc4)CC3)n2)cc1Cl,"inconclusive [inhibitor, partial curve]",
CC(C)CC(=O)NC(Nc1ccc([N+](=O)[O-])cc1)C(Cl)(Cl)Cl (centres undefined),"inconclusive [inhibitor, partial curve, poor fit]",
